# Measurements reported in the supplement of paper PMC8728848.
# Some of the results follow.
# B1: cupB6 (Pseudomonas aeruginosa), Q02SP7 (protein)
# chain: MSMRLFPGRVSLRRRPGAQARQALVLGLCCLTGGQAWALNEVALNCSFGNGKGLPWRVVNELTSGTAKGTVLFARPVSLFLSYKPQASQEAHELVLGGNWSGVGYPGPYGTVASDVKGIGYRISVDAQDGVKRVIPVDNQPHALDKRVTSFSGSTTSDYLQELVLTVDPGELPAGDLKVTSVSGSATLNLWAVDRLKGEASIGSVLAVPADNYPTGVCRKPYSLIGPASIAIGGGPPPPPIPKKCKVEVGREINVKLGSVALKNFPRVNDTSTERSFDISLSECAALAKPEIAFRDKYVSAQQADPTILSLKSGGAAGFGIVVKNGLDQQRIRFDGTPYPMRRVGDSADLPLSAAYIRIGAEGELKAGVADGAAEFTFTFP
# Legend:
# Assay in all cases: glycan array binding signal (z-score within array); higher = stronger binding
# Conditions in all cases: glycan notation: IUPAC condensed, linker removed
# [1] = target: Gal(b1-3)GalNAc(a1-3)[Fuc(a1-2)]Gal(b1-4)GlcNAc
# Method in brief: (§1)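 The binding signal is a Z-score computed within each array and averaged over linkers. Arrays of the same protein sequence at different concentrations or buffers were also averaged together. Data originate from 3228 arrays in the Consortium for Functional Glycomics database, kept only where the protein sequence was available.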
# [2] = target: Gal(b1-3)GalNAc(b1-3)Gal(a1-4)Gal(b1-4)Glc
# Method in brief: as §1
# [3] = target: Gal(b1-3)GalNAc(b1-4)Gal(b1-4)Glc
# Method in brief: as §1
# [4] = target: Gal(b1-3)GalNAc(b1-4)[Neu5Ac(a2-3)]Gal(b1-4)Glc
# Method in brief: as §1
# [5] = target: Gal(b1-3)GlcNAc
# Method in brief: as §1
# [6] = target: Gal(b1-3)GlcNAc(a1-6)Gal(b1-4)GlcNAc
# Method in brief: as §1
# [7] = target: Gal(b1-3)GlcNAc(b1-2)Man(a1-3)[Gal(b1-3)GlcNAc(b1-2)Man(a1-6)]Man(b1-4)GlcNAc(b1-4)GlcNAc
# Method in brief: as §1
# [8] = target: Gal(b1-3)GlcNAc(b1-2)Man(a1-3)[Gal(b1-3)GlcNAc(b1-2)Man(a1-6)]Man(b1-4)GlcNAc(b1-4)[Fuc(a1-6)]GlcNAc
# Method in brief: as §1
# [9] = target: Gal(b1-3)GlcNAc(b1-3)Gal(b1-3)GlcNAc
# Method in brief: as §1
# [10] = target: Gal(b1-3)GlcNAc(b1-3)Gal(b1-4)Glc
# Method in brief: as §1
# [11] = target: Gal(b1-3)GlcNAc(b1-3)Gal(b1-4)GlcNAc
# Method in brief: as §1
# [12] = target: Gal(b1-3)GlcNAc(b1-3)Gal(b1-4)GlcNAc(b1-6)[Gal(b1-3)GlcNAc(b1-3)]Gal(b1-4)Glc
# Method in brief: as §1
# [13] = target: Gal(b1-3)GlcNAc(b1-3)Gal(b1-4)[Fuc(a1-3)]GlcNAc(b1-6)[Gal(b1-3)GlcNAc(b1-3)]Gal(b1-4)Glc
# Method in brief: as §1
# [14] = target: Gal(b1-3)GlcNAc(b1-3)GalNAc
# Method in brief: as §1
# [15] = target: Gal(b1-3)GlcNAc(b1-6)Gal(b1-4)GlcNAc
# Method in brief: as §1
# [16] = target: Gal(b1-3)[Fuc(a1-4)]GlcNAc
# Method in brief: as §1
# [17] = target: Gal(b1-3)[Fuc(a1-4)]GlcNAc(b1-2)Man(a1-3)[Gal(b1-3)[Fuc(a1-4)]GlcNAc(b1-2)Man(a1-6)]Man(b1-4)GlcNAc(b1-4)GlcNAc
# Method in brief: as §1
# [18] = target: Gal(b1-3)[Fuc(a1-4)]GlcNAc(b1-2)Man(a1-3)[Gal(b1-3)[Fuc(a1-4)]GlcNAc(b1-2)Man(a1-6)]Man(b1-4)GlcNAc(b1-4)[Fuc(a1-6)]GlcNAc
# Method in brief: as §1
# [19] = target: Gal(b1-3)[Fuc(a1-4)]GlcNAc(b1-3)Gal(b1-3)[Fuc(a1-4)]GlcNAc
# Method in brief: as §1
# [20] = target: Gal(b1-3)[Fuc(a1-4)]GlcNAc(b1-3)Gal(b1-4)GlcNAc
# Method in brief: as §1
# [21] = target: Gal(b1-3)[Fuc(a1-4)]GlcNAc(b1-3)Gal(b1-4)[Fuc(a1-3)]GlcNAc
# Method in brief: as §1
# [22] = target: Gal(b1-3)[GlcNAc(b1-6)]GalNAc
# Method in brief: as §1
# [23] = target: Gal(b1-3)[Neu5Ac(a2-6)]GalNAc
# Method in brief: as §1
# [24] = target: Gal(b1-3)[Neu5Ac(a2-6)]GlcNAc(b1-6)Gal(b1-4)Glc
# Method in brief: as §1
# [25] = target: Gal(b1-3)[Neu5Ac(b2-6)]GalNAc
# Method in brief: as §1
# [26] = target: Gal(b1-4)GalNAc(a1-3)[Fuc(a1-2)]Gal(b1-4)GlcNAc
# Method in brief: as §1
# [27] = target: Gal(b1-4)GalNAc(b1-3)[Fuc(a1-2)]Gal(b1-4)GlcNAc
# Method in brief: as §1
# [28] = target: Gal(b1-4)Glc
# Method in brief: as §1
# [29] = target: Gal(b1-4)Glc6S
# Method in brief: as §1
# [30] = target: Gal(b1-4)GlcNAc
# Method in brief: as §1
binder,measurement,setting,value
B1,glycan array binding signal (z-score),[1],0.038
same,glycan array binding signal (z-score),[2],0.153
same,glycan array binding signal (z-score),[3],0
same,glycan array binding signal (z-score),[4],-0.23
same,glycan array binding signal (z-score),[5],-0.118
same,glycan array binding signal (z-score),[6],-0.051
same,glycan array binding signal (z-score),[7],-0.083
same,glycan array binding signal (z-score),[8],-0.211
same,glycan array binding signal (z-score),[9],-0.192
same,glycan array binding signal (z-score),[10],0.031
same,glycan array binding signal (z-score),[11],-0.004
same,glycan array binding signal (z-score),[12],0.05
same,glycan array binding signal (z-score),[13],0.062
same,glycan array binding signal (z-score),[14],-0.121
same,glycan array binding signal (z-score),[15],0
same,glycan array binding signal (z-score),[16],-0.046
same,glycan array binding signal (z-score),[17],0.019
same,glycan array binding signal (z-score),[18],0.028
same,glycan array binding signal (z-score),[19],0.014
same,glycan array binding signal (z-score),[20],0.149
same,glycan array binding signal (z-score),[21],-0.016
same,glycan array binding signal (z-score),[22],-0.159
same,glycan array binding signal (z-score),[23],-0.135
same,glycan array binding signal (z-score),[24],-0.034
same,glycan array binding signal (z-score),[25],0.007
same,glycan array binding signal (z-score),[26],-0.01
same,glycan array binding signal (z-score),[27],-0.036
same,glycan array binding signal (z-score),[28],-0.087
same,glycan array binding signal (z-score),[29],-0.038
same,glycan array binding signal (z-score),[30],-0.102
